The target of one experiment is EGFRvIII-mmh (Homo sapiens, UniProt P00533, DELINS30-297G). Nature of the experiment: SPR (BIACORE) binding kinetics, mAb-capture format. To be noted: 37° C., NB=no binding. Here is the method: (§1) Measurements were conducted on a T100 BIACORE™ instrument. […] In the receptor-capture format, either EGFRvIII-mFc or EGFR-mFc, was captured on the BIACORE™ chip and the respective antibodies flowed over. Kinetic association (ka) and dissociation (kd) rate constants were determined by processing and fitting the data to a 1:1 binding model using Scrubber 2.0 curve fitting software. Binding dissociation equilibrium constants (KD) and dissociative half-lives (t1/2) were calculated from the kinetic rate constants as: KD (M)=kd/ka; and t1/2 (min)=ln 2/(60*kd).
A general note: In SPR one partner is held on a chip, and binding of the other changes the refractive index at the surface.

For another experiment, the target named is EGFR-mmh (Homo sapiens, UniProt P00533). Briefly: SPR (BIACORE) binding kinetics, mAb-capture format. To be noted: 37° C., NB=no binding.
Experiment [1] has as its system EGFRvIII-mFc. Nature of the experiment: SPR (BIACORE) binding kinetics, mAb-capture format. To be noted: 37° C., NB=no binding. The arrangement: species or system human.
The target in experiment [2] is T1, EGFR-mFc (Homo sapiens, UniProt P00533). Nature of the experiment: SPR (BIACORE) binding kinetics, mAb-capture format. To be noted: 37° C., NB=no binding.
In experiment [3] the test system is EGFRvIII-mFc. It is filed as binding, human. To be noted: 37° C., receptor-capture, EGFRvIII-mFc captured. How it is done:
as §1

For experiment [4], the target named is T1, EGFR-mFc. Nature of the experiment: SPR (BIACORE) binding kinetics, receptor-capture format. The conditions noted are these: 37° C., EGFR-mFc captured, NB=no binding. How it is done:
as §1

The target of the next experiment is C-term biotin J-peptide (Homo sapiens, UniProt P00533, DELINS30-297G). Nature of the experiment: Antibody specificity by ELISA. To be noted: ELISA binding, avidin pre-coated plates. Here is the method: (§2) To further characterize anti-hEGFRvIII mAbs, their binding specificity was examined by ELISA. […] For the junctional peptides that were linked to biotin either at C-terminal (SEQ ID NO:149) or N-terminal (SEQ ID NO:150) via a linker, plates were pre-coated with avidin. Also, coated was an irrelevant peptide (control peptide) with or without biotin at its N-terminal. Anti-EGFRvIII antibodies as well as an isotype control antibody were added to coated plates and allowed to incubate for 1 hour at 25° C. The plates were then washed and bound anti-EGFRvIII mAbs were detected with anti-human Fc antibodies conjugated with horse-radish peroxidase (HRP). […] Data analysis used a sigmoidal dose-response model within PRISM™ software.
On the technique in general: ELISA stands for enzyme-linked immunosorbent assay.

The target in the next experiment is N-term biotin J-peptide (Homo sapiens, UniProt P00533, DELINS30-297G). Briefly: Antibody specificity by ELISA. To be noted: ELISA binding, avidin pre-coated plates. How it is done:
as §2

In experiment [5] the target is junctional peptide (J-peptide) (Homo sapiens, UniProt P00533, DELINS30-297G). Nature of the experiment: Antibody specificity by ELISA. The conditions noted are these: ELISA binding. Here is the method: as §2
The next experiment concerns Control peptide. Nature of the experiment: Antibody specificity by ELISA. To be noted: ELISA binding, irrelevant peptide. How it is done: (§3) To further characterize anti-hEGFRvIII mAbs, their binding specificity was examined by ELISA. […] For the junctional peptides that were linked to biotin either at C-terminal (SEQ ID NO:149) or N-terminal (SEQ ID NO:150) via a linker, plates were pre-coated with avidin. Also, coated was an irrelevant peptide (control peptide) with or without biotin at its N-terminal. Anti-EGFRvIII antibodies as well as an isotype control antibody were added to coated plates and allowed to incubate for 1 hour at 25° C. The plates were then washed and bound anti-EGFRvIII mAbs were detected with anti-human Fc antibodies conjugated with horse-radish peroxidase (HRP). Plates were developed with a tetra-methyl-benzidine (TMB) substrate solution to produce a colorimetric reaction and neutralized with sulfuric acid before reading absorbance at 450 nm on a VICTOR™ X5 plate reader. Data analysis used a sigmoidal dose-response model within PRISM™ software. […] NT: Not tested. Controls I-III: As described above.

Experiment [6] relates to N-term Biotin control peptide. Briefly: Antibody specificity by ELISA. The conditions noted are these: ELISA binding, irrelevant peptide with N-terminal biotin. Here is the method: as §3
In the next experiment the test system is HEK293 cells. Nature of the experiment: FACS cell binding selectivity. Format: cell-based. To be noted: secondary PE-labeled anti-Fc, 10 μg/ml. How it is done:
To determine the specificity of the anti-EGFRvIII mAbs, their binding to HEK293, HEK293 cells expressing EGFRvIII (HEK293/EGFRvIII) and A431 cells, was analyzed by fluorescence activated cell sorting (FACS). HEK293/EGFRvIII cells were prepared by transfecting HEK293 cells with neomycin resistant DNA vectors constitutively expressing full-length hEGFRvIII (SEQ ID NO:147) using LIPOFECTAMINE™ 2000 transfection reagent (INVITROGEN™). At two days post-transfection, cells were placed under G418 selection for approximately two weeks. Populations positively expressing EGFRvIII were isolated via fluorescence activated cell sorting (FACS). The HEK293 cells expressing ˜3×10^6 copies of EGFRvIII per cell were used in the experiment. Briefly, the anti-EGFRvIII antibodies at 10 μg/ml were incubated with cells for 30 minutes at room temperature, washed, incubated with secondary antibody, i.e., phycoerythrin (PE)-labeled goat F(ab′)2 against human IgG (cat #109-116-170, Jackson ImmunoResearch Laboratories), followed by a final wash before FACS analysis. In another set of experiment, anti-EGFRvIII antibodies were directly conjugated via their lysine residues with the fluorescent dye, ALEXA FLUOR® 488 Dye (INVITROGEN™), thereby eliminating the step using the secondary antibody. […] Controls I, II, III, IV and V are described above. MFI: Mean Fluorescence Intensity.

Where two headings read alike, the source gives them in different places.

B1: H1H2194P: human IgG1 Fc anti-EGFRvIII antibody; HCVR/LCVR SEQ ID NOs 2/10 (antibody, V domains shown)
VH: QVQLVQSGAEVKKPGASVKVSCKASGYTFTSYDINWVRQATGQGLEWMGWINPNSDYTGYVQKFQGRVTMTRDTSISTAYMELSSLRSEDTAVYYCATSRWSEHFHHWGQGTLVTVSS
VL: DIVMTQSPDSLAVSLGERATINCKSSQSVLYSSNNKNYLAWYQHKPGQPPNLLIYWASTRESGVPDRFSGSGSGTDFTLTISSLQAEDVAVYYCHQYYSTPFTFGPGTKVDIKR
modifications: human IgG1 Fc
Regarding B1, the ka in the experiment with EGFRvIII-mmh (analyte EGFRvIII-mmh (monomeric)) turned out to be 81000 M⁻¹ s⁻¹; with EGFR-mmh (analyte EGFR-mmh (monomeric)) it was 76000 M⁻¹ s⁻¹; with EGFRvIII-mFc [1] (analyte EGFRvIII-mFc (dimeric)) it was 95400 M⁻¹ s⁻¹; in the experiment with EGFR-mFc [2] (analyte EGFR-mFc (dimeric)) it was 81000 M⁻¹ s⁻¹; with EGFRvIII-mFc [3], 188000 M⁻¹ s⁻¹; with EGFR-mFc [4], 187000 M⁻¹ s⁻¹. In addition, the kd was 0.00137 s⁻¹ with EGFRvIII-mmh (analyte EGFRvIII-mmh); 0.00096 s⁻¹ with EGFR-mmh (analyte EGFR-mmh); 0.000222 s⁻¹ at EGFRvIII-mFc [1] (analyte EGFRvIII-mFc); 0.000199 s⁻¹ in the experiment with EGFR-mFc [2] (analyte EGFR-mFc); 7.38e-05 s⁻¹ on EGFRvIII-mFc [3]; 7.07e-05 s⁻¹ with EGFR-mFc [4]. The 50% effective concentration (EC50) (in the experiment with C-term biotin J-peptide; with N-term biotin J-peptide; in [5]; in the experiment on Control peptide; in [6]) was above 10 nM in each case. The “Parental HEK293 MFI” value in the experiment with HEK293 cells was 981.
